# About 150 (0.038%) of roughly 390,000 compounds were called active. Inconclusive means that the source gave no clear call. Such entries were picked first, then a sample of the others. Calls follow the shape of the dose curve; as a rule, active = well fitted inhibition curve with a large enough effect; inconclusive = small, poorly fitted or top-dose-only effect; inactive = no such curve, though single readings can be large or run the other way. Potencies beside an inconclusive call are fits to weak or partial responses and may not hold up.
# Target: Regulator of G-protein signaling 4 (Homo sapiens) (UniProt P49798)
# Chain of UniProt P49798 (P49798 whole entry, looked up): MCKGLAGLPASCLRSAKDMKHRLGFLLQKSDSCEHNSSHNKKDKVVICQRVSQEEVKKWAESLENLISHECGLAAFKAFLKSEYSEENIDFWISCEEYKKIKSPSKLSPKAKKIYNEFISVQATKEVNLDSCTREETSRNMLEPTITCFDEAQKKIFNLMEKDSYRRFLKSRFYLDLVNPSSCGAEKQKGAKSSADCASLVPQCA
# Experiment: Inhibitors of Regulator of G Protein Signaling (RGS) 4: qHTS; also: nearly all actives have a fitted effect of over 75% in size
# Conditions: Transcreener GDP fluorescence polarization, RGS4-accelerated GTP hydrolysis; series mostly up to 114 µM
# Summary of the method: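 MLSMR compounds (23 nl, pin-transferred) preincubated 10 min at room temperature with a 500nM (2x) first reagent, then RGS4 at 900nM (2x) plus Transcreener GDP mix added; fluorescence polarization (620/688 nm) read before and after 90 min at 30 °C.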
# % is scaled to controls: 0 for no effect and ±100 for the full control effect; potency is read from the fitted curve at half-maximal effect; tags tell the direction and shape of the fitted curve.
SMILES,Potency,"activity change, negative = inhibition"
CCOC(=O)c1c(C)oc2nc(C)nc(NCC3CCN(Cc4ccc(Cl)cc4)CC3)c12,inactive,
CC1Sc2ccc(S(=O)(=O)N3CCN(c4ccccc4)CC3)cc2NC1=O (stereo unspecified),inactive,
COC(=O)c1c(N2C(=O)CC(Sc3ccccc3C(=O)O)C2=O)sc(C)c1C (stereo unspecified),"inconclusive: 100 µM [inhibitor, partial curve, poor fit]",
COc1ccc(Cl)cc1-c1n[nH]c(=S)n1C,"inconclusive: 56.2 µM [inhibitor, partial curve, poor fit]",
O=c1[nH]c(Nc2ccc3c(c2)OCCO3)nnc1Cc1ccccc1,"inconclusive: 50.1 µM [inhibitor, partial curve, poor fit]",
O=C(CNC(=O)C1COc2ccccc2O1)N/N=C\c1ccc(Br)cc1 (stereo unspecified),inactive,
CC1(C)Cc2c(sc3nc(SCC(=O)O)[nH]c(=O)c23)CO1,"inconclusive: 17.8 µM [inhibitor, full curve, poor fit]",
CN(C)c1ccc(C(=S)N2CCN(Cc3ccccc3)CC2)cc1,"inconclusive: 35.5 µM [inhibitor, partial curve, poor fit]",
CC1(C)Cc2nc(Cl)c(C#N)cc2CO1,"inconclusive: 50.1 µM [inhibitor, partial curve, poor fit]",
COC(=O)C1=C(C)NC(=O)NC1c1ccc(N2CCC(c3ccccc3)=N2)cc1 (stereo unspecified),"inconclusive: 28.2 µM [inhibitor, full curve, poor fit]",
COc1ccc(/C=N/NC(=O)c2[nH]c3ccc(Cl)cc3c2-c2ccccc2)c(C(=O)O)c1OC,inactive,
Cc1cc(C)c(NC(=O)CSc2nc(=O)n(CCN3CCOCC3)c3c2CCC3)c(C)c1,"inconclusive: 100 µM [inhibitor, single point]",
COc1ccc(C(=O)/C(=C\c2ccco2)N2C=CC=CC2=C(C#N)C#N)cc1,"inconclusive: 44.7 µM [inhibitor, partial curve, poor fit]",
CCN(CC)c1ccc(/C=N/NC(=S)NC)c(O)c1,inactive,
COc1ccccc1NC(=O)N(Cc1ccccc1)c1ccccn1,inactive,
CCOC(=O)CC(=O)CSc1nc2c(sc(=S)n2-c2ccc(C)c(C)c2)c(=O)[nH]1,inactive,
C/C=C/COC(=O)c1[nH]c2c(c1C)C(=O)CC(c1ccco1)C2 (stereo unspecified),inactive,
CC(C)c1c(C(=O)N/N=C/c2cccc(OCc3ccccc3)c2)nnn1-c1nonc1N,inactive,
CCOC(=S)NC(=O)c1sc2ccccc2c1Cl,inactive,
Cc1cc(C)nc(SC2=CS(=O)(=O)c3ccccc32)n1,inactive,
O=C(O)c1ccc(-c2ccc(/C=C3\NC(=O)N(Cc4ccc(Cl)cc4)C3=O)o2)cc1Cl,inactive,
COc1ccc(CCNC(=O)Cc2ccc(OCc3ccccc3)c(OC)c2[N+](=O)[O-])cc1OCc1ccccc1,inactive,
Cc1nc(N2CCC(C)CC2)c2c(C)c(C(=O)Nc3cccc(C(F)(F)F)c3)sc2n1,inactive,
O=S(=O)(Nc1cccc(S(=O)(=O)N2CCCCCC2)c1)c1ccccc1,inactive,

SMILES,Potency,"activity change, negative = inhibition"
COc1ccc(-n2c(NC(=O)c3ccco3)c(C#N)c3nc4ccccc4nc32)cc1,,inactive: 15.1% [at 11.4 µM]
O=S(=O)(c1cccc2nsnc12)N1CCN(c2ccccc2F)CC1,"inconclusive: 79.4 µM [inhibitor, partial curve, poor fit]",
CCc1cc(C(=O)OC)c(NC(=O)c2ccoc2C)s1,inactive,
Cc1cc(O)ccc1N=Cc1c(C(F)(F)F)[nH][nH]c1=O,"inconclusive: 79.4 µM [inhibitor, partial curve, poor fit]",
CC1c2ccccc2CN1CC1=NCCN1 (stereo unspecified),"inconclusive: 1.68 µM [inhibitor, partial curve, poor fit]",
O=C(NCc1cccs1)C1CCCN(S(=O)(=O)c2cccc3cccnc23)C1 (stereo unspecified),"inconclusive: 89.1 µM [inhibitor, single point]",
O=C(CCl)N(Cc1ccccc1)c1ccccc1,,inactive: 0.174% [at 11.4 µM]
O=C(N/N=C/C=C/c1ccco1)/C(=C/c1ccccc1)NC(=O)c1ccccc1,"inconclusive: 70.8 µM [inhibitor, partial curve, poor fit]",
CCCCCCCCCCCCCCC(F)C(=O)O (stereo unspecified),"inconclusive: 0.106 µM [inhibitor, full curve, poor fit]",
CC(C)(C)N(NS(=O)(=O)c1ccc(F)cc1)c1ccccc1,"inconclusive: 56.2 µM [inhibitor, partial curve, poor fit]",
COc1cc2c(cc1OC)C1C(=O)c3cc(OS(C)(=O)=O)c(OC)cc3C1N(C)C2=O (stereo unspecified),"inconclusive: 100 µM [inhibitor, single point]",
COc1ccc(OC)c(Nc2nc(=O)c3cccnc3s2)c1,"inconclusive: 31.6 µM [inhibitor, full curve, poor fit]",
N#C/C(=N\Nc1ccc(S(=O)(=O)N2CCCCC2)cc1)C(N)=S,"inconclusive: 17.8 µM [inhibitor, full curve, poor fit]",
CN(CC(=O)Nc1ccccc1Br)C(=O)C(Cc1ccccc1)NC(=O)c1ccccc1 (stereo unspecified),inactive,
CCOC(=O)N1CCN(C(=O)/C(=C/c2ccc(Br)cc2)NC(=O)c2ccc(OC)cc2)CC1,inactive,
CCN(CC)C(=O)C1CCCN(C/C=C/c2ccccc2)C1 (stereo unspecified),inactive,
Cc1ccc2[nH]c(O)c(N=Nc3nc4ccccc4s3)c2c1,inactive,
COc1ccc2oc(=O)c(/C(N)=N/NC(=O)c3ccncc3)cc2c1,"inconclusive: 50.1 µM [inhibitor, partial curve, poor fit]",
O=C(Nc1cc(S(=O)(=O)N2CCOCC2)ccc1N1CCCCC1)c1cc(-c2ccccn2)nc2ccccc12,"inconclusive: 89.1 µM [inhibitor, partial curve, poor fit]",
CCOC(=O)C(Sc1ncc(C#N)c(N)n1)C(C)C (stereo unspecified),"inconclusive: 79.4 µM [inhibitor, partial curve, poor fit]",
CC(CP(=O)(O)O)NC(=O)Cc1ccccc1 (stereo unspecified),inactive,
Nc1nnc(/C=C/c2ccccc2Cl)s1,"inconclusive: 44.7 µM [inhibitor, partial curve, poor fit]",
Cc1ccc(N=Cc2ccc(O)cc2O)cc1F,"inconclusive: 50.1 µM [inhibitor, partial curve, poor fit]",
CCCNC(=O)c1ccc(CN2CCc3ccccc3C2)cc1,"inconclusive: 89.1 µM [inhibitor, single point]",

SMILES,Potency,"activity change, negative = inhibition"
COCCNC(=S)c1ccc(OC)cc1,"inconclusive: 70.8 µM [inhibitor, partial curve, poor fit]",
Cc1nn(-c2cccc(Cl)c2)c2c1C(c1cccnc1)C(C#N)=C(N)O2 (stereo unspecified),"inconclusive: 100 µM [inhibitor, partial curve, poor fit]",
COC(=O)c1ccc(C23CC4(C2)[C@H](CN(Cc2ccc(C(F)(F)F)cc2)[C@@H]4c2ccccc2)C3c2ccccc2)cc1 (stereo partly specified),inactive,
CCCCOC(=O)Cc1c(O)c2ccccc2[nH]c1=O,inactive,
N#C/C(=C\c1cccs1)C(=O)c1ccccc1Cl,"inconclusive: 17.8 µM [inhibitor, full curve, poor fit]",
N#CC1C(=O)c2ccccc2C1c1ccccc1 (stereo unspecified),"inconclusive: 20 µM [inhibitor, full curve, poor fit]",
CCc1cc(/C(Cc2ccccn2)=N\Nc2ccccc2)c(O)cc1O,"inconclusive: 44.7 µM [inhibitor, partial curve, poor fit]",
C/C=C/C=C\C(=O)Nc1cccc(C2=NOC3(C2)C[C@@H](C(N)=O)N(C(=O)/C(C)=C/C)C3)c1 (stereo partly specified),"inconclusive: 17.8 µM [inhibitor, full curve, poor fit]",
COc1ccc2nc(NNC(=O)c3cc(=O)c4ccccc4o3)sc2c1,"inconclusive: 89.1 µM [inhibitor, partial curve, poor fit]",
COc1ccc(NC(=O)c2nnn(Cc3cccc(F)c3)c2N)c(OC)c1,inactive,
Cc1ccc(S(=O)(=O)N2CCN(C(=O)c3cccc(-n4cccc4)c3)CC2)cc1,inactive,
O=C1C=C(c2ccc(Cl)cc2)C(=O)N1Nc1ccccc1,"inconclusive: 28.2 µM [inhibitor, full curve, poor fit]",
Cc1ccc(/C=N/NC(=O)Nc2ccccc2)o1,inactive,
CC(CCN1CCN(c2ccccc2)CC1)c1ccccc1 (stereo unspecified),inactive,
Cc1ccc([N+](=O)[O-])cc1S(=O)(=O)n1ccnc1C,"inconclusive: 28.2 µM [inhibitor, full curve, poor fit]",
COc1cc(NC(=O)Nc2ccccc2OC)c(OC)cc1NC(=O)CN1CCCCC1,inactive,
O=C(NCCNC(=O)c1ccc(Br)o1)c1ccc(Br)o1,,inactive: 11.1% [at 11.4 µM]
Cc1ccc(Nc2nnns2)cc1,"inconclusive: 20 µM [inhibitor, full curve, poor fit]",
Cc1sc2ccccc2[n+]1CC(=O)O,"inconclusive: 20 µM [inhibitor, full curve, poor fit]",
C=C(C)C(=O)Nc1cccc(C2=NOC3(C2)C[C@@H](C(N)=O)N(C(=O)[C@H]2CCC(=O)N2)C3)c1 (stereo partly specified),"inconclusive: 11.2 µM [inhibitor, full curve, poor fit]",
COc1cccc(-c2csc(-c3c(N)c(C(=O)c4ccc5c(c4)OCO5)n4ccccc34)n2)c1,inactive,
Cc1c(Br)c(O)c(Br)c(O)c1/C=N/n1c(-c2ccccc2)n[nH]c1=S,"inconclusive: 79.4 µM [inhibitor, partial curve, poor fit]",
CCOc1ccc(-c2nnn(CCC#N)n2)cc1OC,"inconclusive: 20 µM [inhibitor, full curve, poor fit]",

# Reference: PubChem BioAssay AID504845 (National Center for Advancing Translational Sciences (NCATS), 2011)
